# This is one part of the list. The full chains were built here from the parent and the listed change. Values near 0.05 are background.
# B1: TEV protease; numbered along this chain (parent)
# chain: MGESLFKGPRDYNPISSSICHLTNESDGHTTSLYGIGFGPFIITNKHLFRRNNGTLVVQSLHGVFKVKDTTTLQQHLVDGRDMIIIRMPKDFPPFPQKLKFREPQREERICLVTTNFQTKSMSSMVSDTSCTFPSGDGIFWKHWIQTKDGQCGSPLVSTRDGFIVGIHSASNFTNTNNYFTSVPKNFMELLTNQEAQQWVSGWRLNADSVLWGGHKVFMVKPEEPFQPVKEATQL
# Variants of: B1
# Experiment: raw area under fraction-flipped curve 0-4 h after induction (AUC4h, not background-subtracted), DNA-recorder readout of cleavage of the substrate (dimensionless); higher = more cleavage of the substrate by the protease variant
# Details: temperature: 34 °C; time window: 0-4 h after rhamnose induction
# Procedure: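 In vivo DNA recorder in E. coli TOP10(DE3) ΔrhaA at 34 °C. Each TEVp single-site mutant (parent TEVp 0) is paired with a single-site variant of the 7-mer TEVs (canonical ENLYFQ|S). The substrate sits between flexible linkers in a Bxb1-sfGFP-TEVs-SsrA fusion, so cleavage stabilises Bxb1 and speeds flipping of a recombination array, read by NGS. The value is the raw area under the fraction-flipped curve over 0-4 h after rhamnose induction (AUC4h), with ≥20 reads per time point. It is not background-subtracted; inactive controls average about 0.047.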
# 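Also: Bxb1 expression induced with 0.2% (w/v) L-rhamnose at OD600 near 0.5, cultures sampled hourly, flipped fraction per protease–substrate barcode pair counted by paired-end Illumina sequencing.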
variant,measurement,value
K120G,area with substrate ENLAFQS,0.0794
same,area with substrate ENLDFQS,0.0648
same,area with substrate ENLFFQS,0.0666
same,area with substrate ENLHFQS,0.0678
same,area with substrate ENLIFQS,0.0754
same,area with substrate ENLKFQS,0.0965
same,area with substrate ENLLFQS,0.0611
same,area with substrate ENLNFQS,0.0737
same,area with substrate ENLPFQS,0.0605
same,area with substrate ENLQFQS,0.0646
same,area with substrate ENLRFQS,0.0673
same,area with substrate ENLWFQS,0.0585
G80P,area with substrate ENLAFQS,0.0558
same,area with substrate ENLDFQS,0.0612
same,area with substrate ENLFFQS,0.0653
same,area with substrate ENLIFQS,0.0838
same,area with substrate ENLPFQS,0.0662
same,area with substrate ENLSFQS,0.0518
L61G,area with substrate ENLAFQS,0.0647
same,area with substrate ENLDFQS,0.0648
same,area with substrate ENLEFQS,0.0677
same,area with substrate ENLFFQS,0.0983
same,area with substrate ENLGFQS,0.0685
same,area with substrate ENLHFQS,0.078
same,area with substrate ENLKFQS,0.0764
same,area with substrate ENLNFQS,0.0679
same,area with substrate ENLPFQS,0.0683
same,area with substrate ENLRFQS,0.0858
same,area with substrate ENLSFQS,0.0656
same,area with substrate ENLWFQS,0.052
P96V,area with substrate ENLAFQS,0.0686
same,area with substrate ENLCFQS,0.065
same,area with substrate ENLDFQS,0.0655
same,area with substrate ENLEFQS,0.0697
same,area with substrate ENLFFQS,0.0832
same,area with substrate ENLGFQS,0.0535
same,area with substrate ENLHFQS,0.0803
same,area with substrate ENLKFQS,0.0741
same,area with substrate ENLLFQS,0.0894
same,area with substrate ENLNFQS,0.063
same,area with substrate ENLPFQS,0.0553
same,area with substrate ENLQFQS,0.0776
same,area with substrate ENLRFQS,0.0814
same,area with substrate ENLSFQS,0.0548
same,area with substrate ENLVFQS,0.0809
same,area with substrate ENLWFQS,0.0641
P96N,area with substrate ENLAFQS,0.0704
same,area with substrate ENLCFQS,0.0827
same,area with substrate ENLDFQS,0.0661
same,area with substrate ENLEFQS,0.0549
same,area with substrate ENLFFQS,0.0985
same,area with substrate ENLGFQS,0.0677
same,area with substrate ENLHFQS,0.0691
same,area with substrate ENLIFQS,0.075
same,area with substrate ENLKFQS,0.0734
same,area with substrate ENLMFQS,0.0664
same,area with substrate ENLNFQS,0.0716
same,area with substrate ENLPFQS,0.054
same,area with substrate ENLQFQS,0.0844
same,area with substrate ENLRFQS,0.0771
same,area with substrate ENLSFQS,0.0423
same,area with substrate ENLTFQS,0.0753
same,area with substrate ENLVFQS,0.0926
same,area with substrate ENLWFQS,0.0649
P96S,area with substrate ENLAFQS,0.0669
same,area with substrate ENLFFQS,0.0628
same,area with substrate ENLHFQS,0.0487
same,area with substrate ENLIFQS,0.0857
same,area with substrate ENLKFQS,0.0733
same,area with substrate ENLMFQS,0.0585
same,area with substrate ENLNFQS,0.0535
same,area with substrate ENLQFQS,0.0852
same,area with substrate ENLRFQS,0.107
P96M,area with substrate ENLAFQS,0.0447
same,area with substrate ENLCFQS,0.046
same,area with substrate ENLEFQS,0.0677
same,area with substrate ENLFFQS,0.11
same,area with substrate ENLGFQS,0.0951
same,area with substrate ENLHFQS,0.0632
same,area with substrate ENLIFQS,0.0703
same,area with substrate ENLKFQS,0.0997
same,area with substrate ENLMFQS,0.0667
same,area with substrate ENLPFQS,0.0613
same,area with substrate ENLQFQS,0.0657
same,area with substrate ENLRFQS,0.0888
same,area with substrate ENLSFQS,0.0707

# Reference: the supplement of paper PMC12217912
